The other results are listed elsewhere or left out. Shown are side measurements of this screen, not its main read-out; they come without a call.
Legend:
Test in all cases: Primary Screen for Target Class Profiling of Small Molecule Inhibitors of Methyltransferases
[1] = target: Glycine N-methyltransferase (Homo sapiens) (UniProt Q14749); conditions: purified enzyme, MTase-Glo SAH luminescence; measured here: GNMT inhibition; at 40 µM; stronger effect = lower value
Summary of the method: (§1)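 Each enzyme was assayed with SAM and its substrate. SAH formation detected by MTase-Glo luminescence; single-point 40 uM screen[…].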

[2] = target: Guanidinoacetate N-methyltransferase (Homo sapiens) (UniProt Q14353); conditions: purified enzyme, MTase-Glo SAH luminescence; measured here: GAMT inhibition; at 40 µM; stronger effect = lower value
Summary of the method: as §1

[3] = target: Histamine N-methyltransferase (Homo sapiens) (UniProt P50135); conditions: purified enzyme, MTase-Glo SAH luminescence; measured here: HNMT inhibition; at 40 µM; stronger effect = lower value
Summary of the method: as §1

[4] = target: Nicotinamide N-methyltransferase (Homo sapiens) (UniProt P40261); conditions: purified enzyme, MTase-Glo SAH luminescence; measured here: NNMT inhibition; at 40 µM; stronger effect = lower value
Summary of the method: as §1

[5] = target: Phenylethanolamine N-methyltransferase (Homo sapiens) (UniProt P11086); conditions: purified enzyme, MTase-Glo SAH luminescence; measured here: PNMT inhibition; at 40 µM; stronger effect = lower value
Summary of the method: as §1
% is set by controls: 0 for no effect and ±100 for the full control effect.

Row | SMILES | activity change, negative = inhibition [1] | activity change, negative = inhibition [2] | activity change, negative = inhibition [3] | activity change, negative = inhibition [4] | activity change, negative = inhibition [5]
1 | COc1ccc(OC)c(N2C(=O)CSc3c(c4ccccc4n3C)C2C(=O)NCc2ccc(F)cc2)c1 (stereo not drawn) | -7.01% | -1.39% | 5.41% | -3.26% | 0.039%
2 | O=C1NCCC[C@@H]1NC(=O)[C@H]1CN(C(=O)NC2CCCCC2)CCN1S(=O)(=O)c1ccc(F)cc1 | -0.377% | -0.74% | -1.56% | 3.33% | 3.89%
3 | CNC(=O)c1ccc(Nc2ncc(C(F)(F)F)c(NCc3nccnc3N(C)S(C)(=O)=O)n2)cc1 | 4.12% | -2.26% | 4.74% | -30% | 0.829%
4 | O=C(c1ccn[nH]1)N1CCCCC1c1nc(CCOCC2CCCC2)no1 (stereo not drawn) | -5.66% | -8.53% | -5.53% | -18.1% | 1.26%
5 | CCC1c2ccc(C)n2CCN1C(=O)Nc1cccc(C)c1C (stereo not drawn) | -7.89% | -0.676% | -10.4% | 1.29% | -5.46%
6 | CN1CCN(CCCN2C(=O)c3cc4occc4n3CC2(C)C(=O)NC2CCCCC2)CC1 (stereo not drawn) | 2.48% | 0% | 7.44% | 7.85% | 5.16%
7 | CC1(C(=O)NC2CCCC2)Cn2c(cc3ccccc32)C(=O)N1CCCN1CCOCC1 (stereo not drawn) | 3.2% | 3.74% | -1.66% | 1.4% | -22.4%
8 | Cc1ccc(NC(=O)C2(c3ccc4c(c3)OC(F)(F)O4)CC2)nc1-c1cccc(C(=O)O)c1 | -11.3% | -2.11% | 9.35% | -26.8% | 0.452%
9 | COC12CC3C(C(C)C1=CC(=O)O2)C(O)C(OC(C)=O)C1C(C)(C)C(OC(C)=O)CCC31C (stereo not drawn) | 0% | 5.64% | 6.72% | -5.47% | 4.73%
10 | Cc1c(Cl)cccc1NC(=O)N1CCn2cccc2C1C (stereo not drawn) | 2.5% | 0% | 7.3% | -6.49% | 2.94%
11 | CCOc1ccc(CCNC(=O)CCn2ccc3cc(S(=O)(=O)N4CCCCC4)ccc32)cc1 | 0.98% | 4.92% | -1.88% | -2.25% | 0.604%
12 | Cc1ccc(-c2ccc3nnc(CNC(=O)COc4cccc(C)c4)n3n2)cc1 | -7.39% | -4.76% | -1.19% | -5.36% | -0.544%
13 | O=C(NCc1ccc(F)cc1)c1ccc(N2CC3CC(C2)[C@H]2CCCC(=O)N2C3)nc1 (stereo partly drawn) | -5.45% | -8.91% | -5.23% | -8.89% | -10.5%
14 | CCCN1C(=O)c2c(C(=O)NCCc3ccc(Cl)cc3)ncn2CC1(C)C(=O)NCc1ccc(OC)cc1 (stereo not drawn) | 0.543% | 2.25% | 5.33% | -0.345% | 4.88%
15 | Cc1ccc(CN2CC(=O)N(Cc3cccc(F)c3)c3ccccc3S2(=O)=O)cc1 | -5.68% | -3.65% | -6.94% | -11.1% | -11.6%
16 | CC(C)(C)c1ccc(S(=O)(=O)/C=C/C#N)cc1 | -70.5% | 10.3% | 6.74% | -5.18% | 3.74%
17 | CC(=O)Nc1sc2c(c1-c1ccc(N3CCN(C)CC3)cc1)CCNC2 | – | -5.5% | – | -27.7% | -0.82%
18 | Cc1ccc(NC(=O)N2Cc3c(sc4c3CCCC4)-n3cccc3C2c2cc(F)cc(F)c2)cc1F (stereo not drawn) | 0.093% | 4.17% | 8.15% | 9.57% | 9.23%
19 | CC1(C(=O)NC2CCCCCCC2)Cn2c(cc3sccc32)C(=O)N1c1cccc(F)c1 (stereo not drawn) | -2.67% | 4.03% | 4.88% | -0.735% | -4.05%
20 | CCOc1ccc(CN2CCN(C/C=C/c3ccccc3OC)CC2CCO)cc1 (stereo not drawn) | -6.66% | -11.1% | -7.82% | -18.6% | -17.3%
21 | CC[C@@]1(C(=O)O)C[C@H](C(=O)N(C)CCCO)[C@H](c2ccc(OC)cc2)N1C | -9.98% | 1.3% | 1.24% | 0.51% | 0.127%
22 | COc1ccccc1C(=O)N1CCN(c2nccc(Nc3ccccc3Cl)n2)CC1 | -17.9% | -2.3% | -4.28% | -7.81% | -5.54%
23 | Cc1ccc(N2C(=O)c3cc4sccc4n3CC2(C)C(=O)NC2CCCCC2C)cc1C (stereo not drawn) | 0.047% | 0% | -4.93% | -2.98% | -4.23%
24 | COc1nccc(N2CCC(CC(=O)NCCCN3CCCC3=O)CC2)n1 | -0.554% | 0.043% | -1.33% | -7.82% | 13.9%
25 | CCCn1c(=O)c2ccccc2n2c(=O)n(CC(=O)Nc3ccc(CC)cc3)nc12 | 1.43% | 3.63% | 6.4% | -2.71% | -1.24%
26 | C[C@@]1(O)CCN(Cc2cnc(NCC(=O)O)nc2)C[C@@H]1O | -0.335% | -1.16% | 1.85% | -4.45% | 0.177%
27 | Cc1ccc(S(=O)(=O)c2nnn3c2nc(NC2CCCC2)c2ccccc23)cc1 | -3.45% | 4.96% | 0.14% | -10.9% | -2.76%
28 | CNC(=O)c1cc(Oc2ccc3nc(N[C@@H]4CCCC[C@H]4O)sc3c2)ccn1 | -11.5% | -13.4% | -0.743% | -27.2% | -13.4%
29 | COc1ccc(OC)c(CNC(=O)c2cc3n(n2)CC(C)(C(=O)NCc2ccc(C)cc2)N(C)C3=O)c1 (stereo not drawn) | 0.813% | 5.29% | 4.17% | -1.7% | 2.21%

From PubChem BioAssay AID1745853 (National Center for Advancing Translational Sciences (NCATS), 2022)
